Measurements published in the supplement of paper PMC10369915.
This is one part of the list. Rule as the data show it: active = 3.2 or more and inactive = the rest. Most of these values are background signal.

Key:
Experiment in all cases: enrichment score (SH2-bound / input frequency) (ratio); bacterial display of known human phosphotyrosine sites (pTyr-Var adds point mutants) read by sequencing; higher = stronger binding; tyrosines were phosphorylated by kinases first
Conditions in all cases: peptide library: Human pTyr
[1] = molecular target: SHP2 C-SH2 domain E139D
[2] = molecular target: SHP2 C-SH2 domain wild-type
[3] = molecular target: SHP2 N-SH2 domain L43F
[4] = molecular target: SHP2 N-SH2 domain T42A
[5] = molecular target: SHP2 N-SH2 domain T52S
[6] = molecular target: SHP2 N-SH2 domain wild-type

Measured: enrichment score
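Also: displayed peptides selected on beads carrying the immobilized SH2 domain, with library peptides lacking any tyrosine serving as negative controls.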

KAHDGGIYAISWSPD [WDR1_HUMAN_238]
inactive: [1] 0.85 | [2] 0.617 | [3] 0.618 | [4] 1.18 | [5] 0.825 | [6] 0.825

KLHCIVTYCEACQEE [ZMYM2_HUMAN_680_YA]
inactive: [1] 1.47 | [2] 1.54 | [3] 1.31 | [4] 1.41 | [5] 1.68 | [6] 2.04

ERQLNGTYAIAGGKA [ZAP70_HUMAN_69]
inactive: [1] 0.714 | [2] 0.574 | [3] 0.723 | [4] 0.556 | [5] 0.553 | [6] 0.756

VSTSVSHYGAEPTTV [YES_HUMAN_32]
inactive: [1] 0.633 | [2] 0.554 | [3] 0.688 | [4] 0.605 | [5] 0.683 | [6] 0.406

IHSGEKPYECVECGK [ZN264_HUMAN_511]
inactive: [1] 1.02 | [2] 0.666 | [3] 0.665 | [4] 0.876 | [5] 0.688 | [6] 0.687

AEAAASAYANPGNPH [WBP2_HUMAN_231_YA]
inactive: [1] 0.825 | [2] 0.551 | [3] 0.616 | [4] 0.54 | [5] 0.58 | [6] 0.597

MMDGAMGYVQPPPPP [WBP2_HUMAN_192]
inactive: [1] 0.513 | [2] 0.39 | [3] 0.471 | [4] 0.527 | [5] 0.493 | [6] 0.464

MASGDTLYIATDGSE [YY1_HUMAN_8]
inactive: [1] 0.551 | [2] 0.46 | [3] 0.6 | [4] 0.512 | [5] 0.515 | [6] 0.742

SPPDYSEYMTGKKLP [YY1_HUMAN_254]
inactive: [1] 0.647 | [2] 0.463 | [3] 0.661 | [4] 0.573 | [5] 0.522 | [6] 0.7

AETSKLIYDFIEDQG [WASP_HUMAN_291]
inactive: [1] 0.971 | [2] 0.959 | [3] 1.45 | [4] 1.1 | [5] 1.11 | [6] 0.887

IHTGDRPYVCPFDGC [YY1_HUMAN_383]
inactive: [1] 0.575 | [2] 0.617 | [3] 0.71 | [4] 0.636 | [5] 0.626 | [6] 0.636

DTDSINLYKNMRETL [XPO1_HUMAN_454]
inactive: [1] 0.668 | [2] 0.715 | [3] 0.704 | [4] 0.855 | [5] 0.542 | [6] 0.86

KRNSLPQYQATMPDG [ZMYM2_HUMAN_595]
inactive: [1] 1.02 | [2] 0.781 | [3] 0.925 | [4] 0.879 | [5] 1.16 | [6] 1.15

TMPDGKLYNFCNSSC [ZMYM2_HUMAN_605]
inactive: [1] 0.851 | [2] 0.615 | [3] 1.18 | [4] 0.718 | [5] 0.764 | [6] 0.787

TTKDGWVYYANHTEE [WWOX_HUMAN_33]
inactive: [1] 1 | [2] 0.78 | [3] 0.867 | [4] 1.38 | [5] 0.744 | [6] 0.814

ADAEKPFYVNVEFHH [BCR_HUMAN_177]
inactive: [1] 2.09 | [2] 1.76 | [3] 1.52 | [4] 2.22 | [5] 1.79 | [6] 2.54

GMDPSDIYAVIQIPG [ZCHC3_HUMAN_202]
inactive: [1] 1.36 | [2] 2.5 | [3] 0.861 | [4] 1.06 | [5] 0.94 | [6] 0.828

YQPYQSIYVGGMMEG [BCR_HUMAN_283]
inactive: [1] 0.977 | [2] 0.893 | [3] 0.649 | [4] 0.7 | [5] 0.812 | [6] 0.9
